In the supplement of paper PMC3334620:
In all, about 33,000 sequences were measured (“E-score (-0.5 to 0.5)”: median about -0.01, highest 2% from about 0.26 on). Some of the results follow.

molecular target: Ste12 (UniProt P13574); test: PBM E-score (8-mer binding enrichment) (E-score (-0.5 to 0.5)); higher = stronger / more preferred TF binding; most listed sequences are background and not binding sites; conditions: protein concentration: 200 nM; construct: GST-DNA-binding domain
Outline: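 Universal all-10-mer Agilent arrays, double-stranded by primer extension on fresh or once-stripped slides, were probed with about 100-200 nM GST-tagged yeast transcription factors made by PURExpress. Fluorescent anti-GST detected bound protein, and masliner normalised the scans. E-scores from the Universal PBM Analysis Suite were given to each ungapped eight-base word pooled with its reverse complement.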

First: AAGTTGGT
Second: GCGCGCAA
The “PBM E-score” value of the first is lower: 0.00975 for the first, 0.236 for the second.

First: CTACTATA
Second: ACAAGGAA
The “PBM E-score” value of the first is lower: 0.0831 for the first, 0.242 for the second.

Going from GTACCGGA to GGGGGTTA, the “PBM E-score” value falls from -0.0824 to -0.168.

First: CCGGGATA
Second: CGCCGTCC
The “PBM E-score” value of the first is higher: -0.0779 for the first, -0.168 for the second.

Going from AGTACTCA to CCGGTCTC, the “PBM E-score” value rises from -0.074 to -0.016.

Compared with AGCATGCG, ACTAGAGA is higher in “PBM E-score” value: -0.217 for the first, -0.043 for the second.

Going from CTATGTGC to CGGGCGAC, the “PBM E-score” value rises from -0.18 to -0.111.

First: AGTCGTGA
Second: ATATTTGA
The “PBM E-score” value of the first is lower: -0.0721 for the first, 0.117 for the second.

Compared with ATGCCTTA, AGTCACCA is lower in “PBM E-score” value: -0.0464 for the first, -0.182 for the second.

Going from AATGGCAG to AGGTGACA, the “PBM E-score” value rises from -0.0267 to -0.0124.

Compared with ACATAACA, GGTCCTCA is lower in “PBM E-score” value: 0.0867 for the first, -0.163 for the second.

Going from AATCATGT to GCACGCCC, the “PBM E-score” value falls from 0.141 to -0.0177.

Compared with GCCCATGA, CTAAGCTC is lower in “PBM E-score” value: 0.0702 for the first, -0.106 for the second.

First: ATGGTGCG
Second: ACGGCCCT
The “PBM E-score” value of the first is higher: -0.0292 for the first, -0.257 for the second.

First: CACTTAAG
Second: GAGTTTGC
The “PBM E-score” value of the first is lower: -0.0327 for the first, 0.0562 for the second.

Compared with CATGAGTA, AGGATTCG is higher in “PBM E-score” value: -0.0589 for the first, -0.0137 for the second.

First: AGCTTCGA
Second: ACTTAAGT
The “PBM E-score” value of the first is lower: -0.193 for the first, 0.0329 for the second.

First: ACAGAGCG
Second: ATTGTGCG
The “PBM E-score” value of the first is lower: -0.132 for the first, 0.01 for the second.

Compared with TCTGGACA, ACTGTCTC is higher in “PBM E-score” value: -0.142 for the first, -0.0447 for the second.

First: ACAGACCG
Second: ACACATCA
The “PBM E-score” value of the first is higher: -0.0542 for the first, -0.0841 for the second.

Compared with GAGGGGAC, CGATTAAC is lower in “PBM E-score” value: 0.0916 for the first, -0.181 for the second.

Going from CATTACCG to CCCGTCTA, the “PBM E-score” value rises from -0.16 to -0.125.

First: GAAACAGC
Second: CCGCTAAC
The “PBM E-score” value of the first is higher: 0.232 for the first, 0.0696 for the second.

Compared with GCGGAGTA, ACCCGGGA is higher in “PBM E-score” value: -0.183 for the first, -0.0385 for the second.

Compared with CACAATCG, CCATGGCA is lower in “PBM E-score” value: 0.0959 for the first, -0.0594 for the second.

Compared with TAGGCGCA, CCTGCTAC is higher in “PBM E-score” value: 0.0356 for the first, 0.0937 for the second.

Compared with ACTCCGCA, ACAGAACA is higher in “PBM E-score” value: -0.142 for the first, 0.152 for the second.

Compared with CCCTGATC, CTGTCATA is higher in “PBM E-score” value: -0.167 for the first, -0.0309 for the second.

Compared with ACCGGTCG, CCCATCAC is lower in “PBM E-score” value: 0.0556 for the first, -0.0321 for the second.

First: CGAGAAGC
Second: ATCACAGC
The “PBM E-score” value of the first is lower: -0.0149 for the first, 0.0176 for the second.

Going from AATGGGCC to CTCAACAG, the “PBM E-score” value falls from 0.0729 to -0.0353.

First: CCGGGTGC
Second: CAAATGTA
The “PBM E-score” value of the first is lower: -0.0677 for the first, 0.242 for the second.

First: CTATCTTA
Second: GCTAAATA
The “PBM E-score” value of the first is higher: 0.0337 for the first, -0.00585 for the second.

First: GAAGACGC
Second: CACCCCGG
The “PBM E-score” value of the first is lower: -0.11 for the first, -0.0768 for the second.

Going from AATCACAC to GGAGTTAC, the “PBM E-score” value falls from 0.0306 to -0.209.

Compared with GACGATTA, CCGACCCG is higher in “PBM E-score” value: -0.0924 for the first, 0.0798 for the second.

Going from CAATATCA to GTCAGAAC, the “PBM E-score” value falls from 0.0717 to -0.0299.

First: CAGCGGAA
Second: AGGTTACT
The “PBM E-score” value of the first is lower: 0.0151 for the first, 0.0862 for the second.

Compared with AGACTCTG, AAAAATGT is higher in “PBM E-score” value: -0.0653 for the first, 0.223 for the second.

Going from AAATCATC to GCCATAGC, the “PBM E-score” value falls from 0.107 to -0.204.

Going from CCTGTAAC to ACGTTGCG, the “PBM E-score” value falls from 0.191 to 0.0665.

Compared with CCACAAAA, AGGAAATC is lower in “PBM E-score” value: 0.167 for the first, 0.0869 for the second.

Compared with ACTATAAT, CACTATGA is lower in “PBM E-score” value: 0.274 for the first, -0.127 for the second.

Compared with CCCAACAC, AGAAAAAT is lower in “PBM E-score” value: 0.0704 for the first, 0.062 for the second.

Compared with ACTCGAGG, CCTTGCCG is higher in “PBM E-score” value: -0.0419 for the first, -0.0344 for the second.

First: GACAGCGC
Second: AGCGGAAC
The “PBM E-score” value of the first is higher: 0.0396 for the first, -0.0118 for the second.

Compared with GGACAATA, ATAGCGGA is lower in “PBM E-score” value: 0.186 for the first, -0.0903 for the second.

Going from CTAGCTTA to CTGCGACC, the “PBM E-score” value rises from 0.0454 to 0.0572.

First: AACGCCGA
Second: TTATCCAA
The “PBM E-score” value of the first is higher: 0.121 for the first, 0.0779 for the second.

Compared with GACGGAAC, AGCAGTGG is higher in “PBM E-score” value: -0.0863 for the first, 0.0371 for the second.

Going from AGGTCTGA to ACGTGTGC, the “PBM E-score” value falls from -0.0605 to -0.242.

Compared with AAAGTCGG, AGAATTGA is higher in “PBM E-score” value: -0.131 for the first, 0.178 for the second.

Going from GTTAGTGA to CCAAGCAA, the “PBM E-score” value rises from -0.041 to 0.00552.

Going from CACGTGCC to AGTTAGAG, the “PBM E-score” value rises from -0.112 to 0.0692.

First: CTGTTTCC
Second: AATGATCC
The “PBM E-score” value of the first is higher: 0.0865 for the first, -0.0573 for the second.

Going from AGAACAAG to AAGTAGCT, the “PBM E-score” value falls from 0.0467 to -0.247.

Going from GTTGTATA to AAGAGGCA, the “PBM E-score” value falls from 0.0588 to -0.00294.

Going from ACCCATGG to CGATATTA, the “PBM E-score” value rises from -0.0496 to 0.207.

Compared with CCATGAGG, GCAGAAAA is higher in “PBM E-score” value: -0.134 for the first, 0.241 for the second.

Compared with CGTTAGGA, CGGTTTAA is lower in “PBM E-score” value: 0.0933 for the first, 0.00247 for the second.

Compared with CACTATTA, CATCAGAC is higher in “PBM E-score” value: 0.0024 for the first, 0.0597 for the second.

Compared with ACGCCCAT, GCCTTAAA is higher in “PBM E-score” value: 0.045 for the first, 0.184 for the second.

First: ACATGTGG
Second: AAGTTGGA
The “PBM E-score” value of the first is higher: 0.0893 for the first, 0.0207 for the second.

Compared with CGGAAGAC, CTTTAGCA is lower in “PBM E-score” value: 0.052 for the first, -0.0719 for the second.

Going from GAGCTGAC to CGCGGCCC, the “PBM E-score” value rises from -0.0301 to -0.0236.

Compared with TCATACGA, CTTTCATC is lower in “PBM E-score” value: 0.177 for the first, 0.0458 for the second.

Compared with ATTGAAAA, ATCCCGAT is lower in “PBM E-score” value: 0.352 for the first, 0.179 for the second.

Going from GCTAATTA to GCGATCGA, the “PBM E-score” value rises from 0.0451 to 0.0497.

Compared with ATCAAACG, ACTTCGGC is lower in “PBM E-score” value: 0.197 for the first, -0.0993 for the second.

Going from GTGGTAAA to GATTCTGC, the “PBM E-score” value rises from -0.0179 to 0.0363.

Compared with CAGATTCA, ACCCTTCC is higher in “PBM E-score” value: -0.319 for the first, -0.105 for the second.

Compared with CACGGTCC, CCACTTCA is higher in “PBM E-score” value: -0.197 for the first, -0.0451 for the second.

First: ACCGTGCA
Second: AAAAACTC
The “PBM E-score” value of the first is lower: -0.108 for the first, 0.142 for the second.

First: CCAGAATA
Second: AACATCTA
The “PBM E-score” value of the first is higher: 0.137 for the first, 0.0785 for the second.

Compared with CCAACTAA, GTAGAGAA is higher in “PBM E-score” value: 0.00906 for the first, 0.0206 for the second.

First: AGCTCCCA
Second: ATTACTGC
The “PBM E-score” value of the first is lower: -0.147 for the first, -0.0248 for the second.

Going from GTTTCGTA to GGGGCCCC, the “PBM E-score” value falls from 0.248 to 0.0827.

Compared with CTTCCGAC, CTTATACC is higher in “PBM E-score” value: -0.105 for the first, 0.0136 for the second.

Compared with AGTCTAAA, CCAGAAAC is higher in “PBM E-score” value: 0.0666 for the first, 0.147 for the second.

Compared with ACCAACTC, ACGCCAGT is higher in “PBM E-score” value: -0.0963 for the first, -0.084 for the second.

Going from ACAATCAG to GGGTCTTA, the “PBM E-score” value rises from 0.0185 to 0.0466.

First: CACGGCAC
Second: CACTTAAC
The “PBM E-score” value of the first is higher: -0.113 for the first, -0.121 for the second.

Going from ACCTCCGT to GTACGTTA, the “PBM E-score” value rises from -0.207 to 0.0372.

First: ATTATAAT
Second: CTTGTGGC
The “PBM E-score” value of the first is higher: 0.218 for the first, -0.0399 for the second.

Going from CTCGAGAC to ATCAACTC, the “PBM E-score” value falls from 0.0838 to 0.00506.

Compared with CCGCGCGA, GTTATATA is higher in “PBM E-score” value: 0.169 for the first, 0.215 for the second.
